Experimental data taken from the supplement of paper PMC4604168 (melanoma cell lines).
This is one part of the list. Many values rest on one well or one pass, so single values are uncertain.

Columns and labels:
Assay in all cases: cell count relative to DMSO control; melanoma cells; higher = more viable cells
Details in all cases: library dose: standard library concentration; 72 h
G361 = test system: G361
IPC-298 = test system: IPC-298
IST-MEL1 = test system: IST-MEL1
LB2518-MEL = test system: LB2518-MEL
LOXIMVI = test system: LOXIMVI
MEL-HO = test system: MEL-HO
MZ2-MEL = test system: MZ2-MEL
MeWo = test system: MeWo
RPMI7951 = test system: RPMI7951
RVH-421 = test system: RVH-421
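Note: cells treated in 1,536-well plates, then fixed and DAPI-stained, with nuclei counted from automated high-throughput microscope images.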

Row | Structure (SMILES) | cell count (G361) [%] | cell count (IPC-298) [%] | cell count (IST-MEL1) [%] | cell count (LB2518-MEL) [%] | cell count (LOXIMVI) [%] | cell count (MEL-HO) [%] | cell count (MZ2-MEL) [%] | cell count (MeWo) [%] | cell count (RPMI7951) [%] | cell count (RVH-421) [%]
1 | C[C@@H]1CCN(C(=O)CC#N)C[C@@H]1N(C)c1ncnc2[nH]ccc12 + COc1cc2ncnc(Nc3ccc(Oc4ccccc4)cc3)c2cc1OC [SrcI1] (first compound 5 µM, partner dose 10 µM) | 77 | 81.7 | 84.1 | 134 | 85.7 | 88 | 72 | 88.5 | 51.5 | 110
2 | O=C(O)c1ccc(-c2c[nH]c3ncc(-c4ccccc4)cc23)cc1C1CCCC1 + O=C(O)C(=O)Nc1sc2c(c1C(=O)O)CCNC2 [TCS401] (first compound 0.8 µM, partner dose 8.33333 µM) | 86 | 78.9 | 97.4 | 102 | 83.2 | 73.7 | 81.2 | 81.8 | 105 | 25.6
3 | O=c1[nH]nc(Sc2ncc([N+](=O)[O-])s2)n1-c1ccc2c(c1)OCCO2 + OCc1c[nH]c2ccccc12 [Indole-3-carbinol] (first compound 1 µM, partner dose 4 µM) | 89.5 | 94.3 | 98.5 | – | 95.7 | 102 | – | 101 | 101 | 92.5
4 | COc1cc(Nc2ncc(F)c(Nc3ccc4c(n3)NC(=O)C(C)(C)O4)n2)cc(OC)c1OC [Tamatinib] + O=C(Nc1ccccc1)c1cc([N+](=O)[O-])ccc1Cl [GW9662] (first compound 2 µM, partner dose 10 µM) | 71.8 | 76.9 | 75.3 | 55.2 | 29.3 | 63 | 46.9 | 60.8 | 42.9 | 75.6
5 | O=c1[nH]nc(Sc2ncc([N+](=O)[O-])s2)n1-c1ccc2c(c1)OCCO2 + Cc1cc([N+](=O)[O-])ccc1NS(=O)(=O)c1cc(Cl)ccc1Cl [FH535] (first compound 1 µM, partner dose 5 µM) | 38.1 | 52.9 | 59.7 | – | 60.3 | 55.2 | – | 56.7 | 71.3 | 65.9
6 | Cn1cncc1[C@@](N)(c1ccc(Cl)cc1)c1ccc2c(c1)c(-c1cccc(Cl)c1)cc(=O)n2C [tipifarnib] + c1cc(-c2cnn3cc(-c4ccc(OCCN5CCCCC5)cc4)cnc23)ccn1 [Dorsomorphin] (first compound 0.05 µM, partner dose 2 µM) | 53.9 | 79.3 | 91 | 75 | 237 | 87.8 | 74 | 59.8 | 67.2 | 68.3
7 | CC1(C)NC(=O)N(c2ccc([N+](=O)[O-])c(C(F)(F)F)c2)C1=O [nilutamide] + COc1ccc(-c2ccc3c(N4CCOCC4)nc(N4C[C@@H](C)O[C@@H](C)C4)nc3n2)cc1CO [KU0063794] (first compound 5 µM, partner dose 0.1 µM) | 99 | 96.5 | 117 | 114 | 87.3 | 101 | 100 | 90.4 | 124 | 113
8 | O=C(O)c1ccc(-c2c[nH]c3ncc(-c4ccccc4)cc23)cc1C1CCCC1 + Cn1cc(/C=C2\C(=O)Nc3cccnc32)c2ccccc21 [GW441756] (first compound 0.8 µM, partner dose 2 µM) | 71.9 | 85.1 | 80.2 | 156 | 101 | 77 | 85.1 | 72.7 | 85.5 | 91.8
9 | O=C(O)c1ccc(-c2c[nH]c3ncc(-c4ccccc4)cc23)cc1C1CCCC1 + CN(NC(=O)CC(=O)NN(C)C(=S)c1ccccc1)C(=S)c1ccccc1 [STA4783] (first compound 0.8 µM, partner dose 0.03 µM) | 33.4 | 61.4 | 9.29 | 27.3 | 55.4 | 64.1 | 102 | 20.2 | 41.7 | 44.7
10 | O=c1[nH]nc(Sc2ncc([N+](=O)[O-])s2)n1-c1ccc2c(c1)OCCO2 + c1cc(-c2cnn3cc(-c4ccc(OCCN5CCCCC5)cc4)cnc23)ccn1 [Dorsomorphin] (first compound 1 µM, partner dose 2 µM) | 53.2 | 91 | 77.9 | 66.2 | 104 | 81.9 | 72.3 | 74.1 | 67 | 94.9
11 | O=C(O)c1ccc(-c2c[nH]c3ncc(-c4ccccc4)cc23)cc1C1CCCC1 + COc1ccc(COc2ccc(Cc3cnc(N)nc3N)cc2OC)cc1 [GW2580] (first compound 0.8 µM, partner dose 5 µM) | 69.1 | 78.4 | 98.7 | 105 | 91.9 | 79.7 | 79.4 | 72.6 | 89.9 | 111
12 | O=c1[nH]nc(Sc2ncc([N+](=O)[O-])s2)n1-c1ccc2c(c1)OCCO2 + C=CCn1c(=O)c2cnc(Nc3ccc(N4CCN(C)CC4)cc3)nc2n1-c1cccc(C(C)(C)O)n1 [MK1775] (first compound 1 µM, partner dose 0.1 µM) | 87.1 | 84.6 | 76 | – | 95.9 | 93.9 | – | 76.3 | 60.9 | 71.5
13 | COc1cc(Nc2ncc(F)c(Nc3ccc4c(n3)NC(=O)C(C)(C)O4)n2)cc(OC)c1OC [Tamatinib] + O=C(O)C(=O)Nc1sc2c(c1C(=O)O)CCNC2 [TCS401] (first compound 2 µM, partner dose 8.33333 µM) | 72.8 | 92 | 81.5 | 127 | 46.2 | 87.1 | 81.4 | 78.3 | 72.7 | 67
14 | C[C@@H]1CCN(C(=O)CC#N)C[C@@H]1N(C)c1ncnc2[nH]ccc12 + Oc1nc(-c2ccc(C(F)(F)F)cc2)nc2c1CSCC2 [XAV939] (first compound 5 µM, partner dose 10 µM) | 95.6 | 83.9 | 87.8 | 82.5 | 92.5 | 79.7 | 108 | 99.5 | 66.5 | 98.8
15 | O=c1[nH]nc(Sc2ncc([N+](=O)[O-])s2)n1-c1ccc2c(c1)OCCO2 + CC1(C)CCC(c2ccc(Cl)cc2)=C(CN2CCN(c3ccc(C(=O)NS(=O)(=O)c4ccc(N[C@H](CCN5CCOCC5)CSc5ccccc5)c(S(=O)(=O)C(F)(F)F)c4)cc3)CC2)C1 [ABT263] (first compound 1 µM, partner dose 2 µM) | 77.9 | 102 | 77 | 77.8 | 19.4 | 65.8 | 83 | 82.7 | 30.8 | 44.2
16 | Cn1cncc1[C@@](N)(c1ccc(Cl)cc1)c1ccc2c(c1)c(-c1cccc(Cl)c1)cc(=O)n2C [tipifarnib] + CCc1ccc(CCOc2ccc(CC3SC(=O)NC3=O)cc2)nc1 [pioglitazone] (first compound 0.05 µM, partner dose 10 µM) | 86.2 | 105 | 95.9 | 81.7 | 118 | 94.8 | 111 | 109 | 112 | 89.3
17 | O=C(Nc1cccc(Cl)c1)Nc1ncc(CCNc2ncnc3ccsc23)s1 + O=C(O)c1ccc(-c2c[nH]c3ncc(-c4ccccc4)cc23)cc1C1CCCC1 [GSK650394] (first compound 0.004 µM, partner dose 0.8 µM) | 55.7 | 66.6 | 46.2 | – | 80 | 64.4 | – | 54.6 | 49.5 | 73.2
18 | O=c1[nH]nc(Sc2ncc([N+](=O)[O-])s2)n1-c1ccc2c(c1)OCCO2 + CS(=O)(=O)c1ccc(C(=O)Nc2ccc(Cl)c(-c3ccccn3)c2)c(Cl)c1 [vismodegib] (first compound 1 µM, partner dose 5 µM) | 92.5 | 88.3 | 104 | – | 113 | 87.4 | – | 107 | 118 | 274
19 | COc1cc(Nc2ncc(F)c(Nc3ccc4c(n3)NC(=O)C(C)(C)O4)n2)cc(OC)c1OC [Tamatinib] + C[C@@H]1CCN(C(=O)CC#N)C[C@@H]1N(C)c1ncnc2[nH]ccc12 [CP690550] (first compound 2 µM, partner dose 5 µM) | 79.8 | 88.6 | 57.6 | 83.6 | 28.6 | 72.3 | 84 | 69 | 38 | 102
